# Experimental data published in the RNAGym collection of RNA variant scans (doi:10.1073/pnas.2313332121).
# This sample is rich in variants without activity.
# B1: TPR 5TU (parent)
# chain: GGAUCUUCUCGAUCUAACAAAAAAGACAAAUCUGCCACAAAGCUUGAGAGCAUCUUCGGAUGCAGAGGCGGCAGCCUUCGGUGGCGCGAUAGCGCCAACGUUCUCAACUAUGACACGCAAAACGCGUGCUCCGUUGAAUGGAGUUUAUCAUG
# Variants of: B1
# Assay: polymerase ribozyme fitness, log enrichment relative to wild type (log ratio); higher = more active; in vitro selection for triplet polymerase activity
# Procedure, shortened: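 Fitness measures genotype enrichment against wild-type enrichment on a logarithmic scale, with inverse-variance-weighted averaging of replicates. The logarithm is base 2, and genotypes were kept only with ≥10 input reads and ≥1 read per output in Illumina sequencing. The sequenced libraries came from one triplicate in vitro selection round, including frozen incubation at −7 °C, of PCR-built, transcribed mutant libraries of each subunit of a heterodimeric triplet polymerase ribozyme.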
row,Variant,polymerase ribozyme fitness (log ratio)
1,GGAUCUUCACGACCUAUCAAAAAAGACAAACCUGCCACAAAGCUUGAGAGCCUCUUCGGAUGCAGAGGCGGCAGCCUUCGGUUGCGCGAUAGCGCCAACGUUGUCAACUAUGAUACGAAAAACGCGUGCUCCGUUGAAUGGAGUUUAUCAUG [U9A U13C A17U U31C A52C G83U C103G C114U C118A],≤ -4.2
2,GGAUCUUCACGAUCUAACAAAAAAGACAAAUCCGCCACAAAGCUUGAGCGCAUCUUCGGAUGCAGAGGCGGCAGUCUUCCGUGGCGCGAUAGCGCCAACGUUCUCAACUAUGACACGCAAAACGCGUGCUCCGUUGAAGGGAGUUGGUCAUG [U9A U33C A49C C75U G80C U139G U146G A147G],≤ -4.2
3,GGAUCUUCCCGAUCUAACAAAAAAGACAAGUCUGCCACAAAGCUUGAGAGCAUUUUCGGAUGCAGAGGCGGCAGACUUCGGUGGCGCGAUAGCGCUAACGUUCUCAACUAUGACACGCAAAAUGCGUGCUCCGUUGAAUGGAGUUUAUCAUG [U9C A30G C54U C75A C96U C123U],≤ -4.2
4,GGAUCUUCCCGAUCUAACAAAAAUGACAAAUCUGCCACAAAGCUUGAGAGCAUCUUCGGAUUCAGAGGCGGCAGCCUUCGGUGGUGCGAUAGCGCCAACGUUCUCAACUAUGACACGCAAAACGCGUGCUCCGUUGAAUGGAGUUUAUCAUG [U9C A24U G62U C85U],≤ -4.2
5,GGAUCUUCCCGAUCUAUCAAAAAAGACAAGUCUGCCACAAACCUUGAGAGAAUCUUCGGAUGCAGAGGCGGCAGCCUUCGGUGGCGUGAUAGCGCCAACGUUCUCAACUAUGACACGCAAAACGCGUGCUCCGUUGAAUGGAGUUUAUCAUG [U9C A17U A30G G42C C51A C87U],≤ -4.2
6,GGAUCUUCACGAUCUAACAAAAAAGACAAAUCUGCCACAAAGCUUGAGAGCAUCUUCGGAUGCAGAGGCGGCAGCCUUCGGUGGCGCGAUAGCGCCAACGUUCUCAACUAUGACACGCAAAACGCGUGCUCCGUUGAAUGCAGUUUAUCAUG [U9A G141C],-3.23
7,GGAUCUUCCUGAUCUUACCAAAAAGACAAAUCUGCCACAAAGCUUGAGAGCAUCUUCGGAUGCAGAGGCGGCAGCCUUCGGUGGGGCGAUAGCCCCAACGUUCUUUACUAUGACACGCAAAACGCGUGCUCCGUUGAAUGGAGUUUAUCAUG [U9C C10U A16U A19C C85G G94C C105U A106U],≤ -4.2
8,GGAUCUUCACAAUCUAACAAAAAAGAUAAAUCUGCCACAAAGCUUGAGAGCAUCUUCGGAUGCAGAGGCGGCAGCCUUCGGUGUCGCGAUAGCGCCAACGUUCUCAACUAUGACACGCAAAACGCGUGCUCCGUUGAAUGGAGUUUAACAUG [U9A G11A C27U G84U U148A],≤ -4.2
9,GGAUCUUCCCGAUCUAACAAAAAAGACAAUUCUGCCACAAAGCUUGAGAGGAUCUUGGGAUGCAGAGGCGGCAGCCUUCGGUGGCGCGAUAGCGCAAUCGUUCUGAACUAUGACACGCAAAACGCGUGCUCCGUUGAAUGGGGUUUAUCAUG [U9C A30U C51G C57G C96A A98U C105G A142G],≤ -4.2
10,GGAUCUUCCCGUUCUAACAAAAAAGAGAAAUCUGCCACAAAGCUUGAAAGCAUCUUCGGAUGCAGAGGCGGCAACCUUCGGUGGCGCAAUAGCGCCAACGUUCUCAACUAUGACACGCAAAACGCGUGCUCCGUUGAAUGGAGUUUAUCAUG [U9C A12U C27G G48A G74A G88A],≤ -4.2
11,GGAUCUUCCCGAUCUAACAAAAAAGACAUACCUGCCACAAAGCAUGAGAGCAUCUUCGGAUGCAGAGGCGGCAGACUUCGGUGGAGCGAUAGCGCCAACGUUCUCAACUAUGACACGCAAAACGCGUGCUCCGUUGAAUGAAGUUUAUCAUG [U9C A29U U31C U44A C75A C85A G141A],≤ -4.2
12,GGAUCUUCCCGAUCUAACAAAAAAGACAAAUCUGCCACACGGCUUGCGAGCAUCAUCGGAUGCAGAGGCGGCAGCCUUCGGGGGCGCGAUAGCGCCAACGGGCUCAACUAUGACACGCAAAACGCGUGCUCCGUUGAAUGGAGUUCAUCAUG [U9C A40C A41G A47C U55A U82G U101G U102G U146C],≤ -4.2
13,GGAUCUUCCCGAUCUAACAAAAAAGACAAAUCUGCCACAACGCUUGAGGGCAUCUUCGGAUGCAGAGGCGGCAGCCUUCGGUGGCGCGAUAGCGCCAACGUUCUCAACCAUGACACGCAAAACGCGUGCUCCGUUUAAUGGAGUUUAUCAUG [U9C A41C A49G U109C G136U],≤ -4.2
14,GGAUCUUCCCGAUCUUACAAAAAAGACAAAUCUGCCACAAAGCUUGAGAGCAUCUUCGGAUGCAGAGGCGGCAGCCUUCGGUGGCCCGAUAGCGCCAACGUUCUCAAUUAUGACACGGAAAACGCGUGCUCCUUUGAAUGGAGUUUAUCAUG [U9C A16U G86C C108U C118G G133U],≤ -4.2
15,GGAUCUUCACGAUCUAACAAAAAAGACAAAUCUGCCACAAAGCUUGAGAGCAUCUUCGGAUGCAGAGGCGGCAGCCUUCGGUGGCGGGAUAGCGCCAACGUUCUCAACUAUGACACGCAAAACGCGUGCUCCGUUGAAUGGAGUUUAUCAUG [U9A C87G],≤ -4.2
16,GGAUCUUCCCGAUCUAACAAAAAAGACAAAUCUGCCACAAAGCUUGAGAGCAUCUUCGGAUGCAGAGGCGGCUGCCUUCGGUGGCGCGAUAGCGCCAACGUUCUCAACUAUGACACGCAAAACGCGUGCUCCGUUGAAUGGAGUUUAUCAUG [U9C A73U],-4.1
17,GGAUCUUCCCGAUCUAACAAAUAAGACAAAUCUGCCACAAAGCUUGAGAGCAGCUUCGGAUGCAGAGGCGGCAGCCUUUGGUGGCGCGAUAGCGCCAACGUUCUCAACUAUGACACGCAAAACGCGUGCUCCGUUGAAUGGAGUUUAUCAUG [U9C A22U U53G C79U],≤ -4.2
18,GGAUCUUCCCGAUCUAACAAAAAAGAUAACUCUACCACAAAGCUUGAGACCAUCUUCGGAUGCAGAGGCGGCAGCCUUCGGUGGCGCGAUGGCGCCAACGUUCUCAACUAUGACACGCAAAACGCGUGCUCGGUUGAAUGGAGUUUAUCAUG [U9C C27U A30C G34A G50C A91G C132G],≤ -4.2
19,GGAUCUUCACGAGCUAACAAAAAAGACAAAUGUGCCACAAAGCUUGAGAGGAUCUUCGGAUGCAGAGGCUGCAGCCUUCGGUGGCGCGAUAGCGCCAACGUUCUCAACUAUGACACGCAAAACGCGGGCUCCGUUGAAUGGAGUUUAUCAUG [U9A U13G C32G C51G G70U U127G],≤ -4.2
